This is an account of results in the supplement of paper PMC9446081.

Among all 39,000 compounds or so, about 220 (0.56%) showed activity. This is one part of the list.
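Further: static incubation at 37 °C against the wild-type strain, values averaged over two biological replicates.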

In the test the test system is Escherichia coli K-12 BW25113. As to the kind of experiment: relative growth (OD600 normalised to plate interquartile mean) (fraction); higher = less growth inhibition, active = 0.2 or less. The conditions noted are these: 50 µM; LB; incubation time: overnight (16-24 h).
Take `COCC(=O)Nc1ccc2c(c1)C(=O)N(C)C[C@H](OC)[C@@H](C)CN(Cc1ccccc1OC)[C@H](C)CO2`: the relative growth was inactive: 0.976. Under `O=C(O)Cc1cccc(OCCCN(Cc2cccc(C(F)(F)F)c2Cl)CC(c2ccccc2)c2ccccc2)c1` stands inactive: 0.937; under `COC(=O)Nc1nc2ccc(S(=O)c3ccccc3)cc2[nH]1` (stereo unspecified), inactive: 0.868.

Take `Cc1ccc(S(=O)(=O)N(C)C[C@H]2Oc3cc(C#Cc4ccncc4)ccc3S(=O)(=O)N([C@H](C)CO)C[C@@H]2C)cc1`: the relative growth was inactive: 1.05. The same measure for `C[C@@H]1CN([C@H](C)CO)S(=O)(=O)c2ccc(C#CC(C)(C)O)cc2O[C@H]1CN(C)C(=O)CN(C)C`: inactive: 0.988. Under `C[C@H](CO)N1C[C@H](C)[C@@H](CN(C)Cc2ccc(Cl)c(Cl)c2)OCCCC[C@H](C)Oc2ccc(NC(=O)Nc3ccccc3)cc2C1=O` stands inactive: 1.03; under `C[C@@H]1CCCCO[C@@H](CN(C)C(=O)Nc2ccc(C(F)(F)F)cc2)[C@H](C)CN([C@H](C)CO)C(=O)c2cc(NC(=O)NC3CCCCC3)ccc2O1`, inactive: 1.02. In the case of `C[C@@H]1CCCCO[C@H](CN(C)S(=O)(=O)c2ccc(F)cc2)[C@@H](C)CN([C@@H](C)CO)C(=O)c2cc(NS(C)(=O)=O)ccc2O1`, the relative growth was inactive: 1.01.

On to `C[C@@H]1CN([C@@H](C)CO)C(=O)c2cc(NS(=O)(=O)c3ccc(F)cc3)ccc2O[C@@H]1CN(C)Cc1ccc(Oc2ccccc2)cc1`, for which the relative growth is inactive: 0.987.

Take `CC(C)(C)S(=O)N1Cc2cc(C(=O)NCc3ccc4c(c3)OCO4)nc(-c3cccc(C#CCC4CCCC4)c3)c2[C@@H]1CCO` (stereo partly specified): the relative growth is inactive: 1.01. In the case of `COc1ccc2c3c([nH]c2c1)[C@H](CO)N(C[C@]13CCN(CC1)CC1CCCCC1)C(=O)Nc1cccc(c1)F`, the relative growth is inactive: 1.02. Under `C[C@@H]1CN([C@@H](C)CO)C(=O)c2cccc(NS(=O)(=O)c3ccc(F)cc3)c2O[C@@H]1CN(C)C(=O)Nc1ccc(C(F)(F)F)cc1` stands inactive: 0.992.

Consider `CCCC(=O)Nc1ccc2c(c1)C(=O)N(C)C[C@H](OC)[C@@H](C)CN(S(=O)(=O)c1cn(C)cn1)[C@H](C)CO2`, for which the relative growth was inactive: 0.975.

For `COc1ccc(S(=O)(=O)N(C)C[C@@H]2Oc3c(NC(=O)Nc4cccc5ccccc45)cccc3C(=O)N([C@@H](C)CO)C[C@@H]2C)cc1`, the relative growth is inactive: 1.04.

In the case of `C[C@H](NC(=O)C[C@H]1C[C@@H]2c3cc(NC(=O)Nc4ccc(C(F)(F)F)cc4)ccc3O[C@@H]2[C@H](CO)O1)c1ccccc1`, the relative growth was inactive: 0.959. Under `CC(C)NC(=O)N(C)C[C@H]1Oc2c(NS(=O)(=O)c3ccccc3)cccc2C(=O)N([C@@H](C)CO)C[C@H]1C` stands inactive: 1.04.
